# Assay results: the supplement of paper PMC8728848
# The list shows a part of the results.
# B1: TIM1 (protein)
# chain: ADGIQSVKVGGEAGPSVTLPCHYSGAVTSMCWNRGSCSLFTCQNGIVWTNGTHVTYRKDTRYKLLGDLSRRDVSLTIENTAVSDSGVYCCRVEHRGWFNDMKITVSLEIVPPHHHHHH
# Assays:
# Assay in all cases: glycan array binding signal (z-score within array); higher = stronger binding
# Conditions in all cases: glycan notation: IUPAC condensed, linker removed
# [1] = target: Fuc(a1-2)[Gal(a1-3)]Gal(b1-4)GlcNAc(b1-2)Man(a1-3)[Fuc(a1-2)[Gal(a1-3)]Gal(b1-4)GlcNAc(b1-2)Man(a1-6)]Man(b1-4)GlcNAc(b1-4)[Fuc(a1-6)]GlcNAc
# Procedure, shortened: (§1)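 Negative Z-scores can be read as non-binding. The Z-score is calculated within each array and then averaged across arrays of one protein sequence at different concentrations or buffers and across linkers. Arrays, 3228 in all, were curated from the Consortium for Functional Glycomics database and kept only where the protein sequence was available.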
# [2] = target: Fuc(a1-2)[Gal(a1-3)]Gal(b1-4)GlcNAc(b1-3)GalNAc
# Procedure, shortened: as §1
# [3] = target: Fuc(a1-2)[Gal(a1-3)]Gal(b1-4)GlcNAc(b1-3)[Fuc(a1-2)[Gal(a1-3)]Gal(b1-4)GlcNAc(b1-6)]GalNAc
# Procedure, shortened: as §1
# [4] = target: Fuc(a1-2)[Gal(a1-3)]Gal(b1-4)GlcNAc(b1-6)GalNAc
# Procedure, shortened: as §1
# [5] = target: Fuc(a1-2)[Gal(a1-3)]Gal(b1-4)[Fuc(a1-3)]Glc
# Procedure, shortened: as §1
# [6] = target: Fuc(a1-2)[Gal(a1-3)]Gal(b1-4)[Fuc(a1-3)]GlcNAc
# Procedure, shortened: as §1
# [7] = target: Fuc(a1-2)[Gal(a1-3)]Gal(b1-4)[Fuc(a1-3)]GlcNAc(b1-3)GalNAc
# Procedure, shortened: as §1
# [8] = target: Fuc(a1-2)[Gal(a1-4)]Gal(b1-4)GlcNAc
# Procedure, shortened: as §1
# [9] = target: Fuc(a1-2)[GalNAc(a1-3)]Gal
# Procedure, shortened: as §1
# [10] = target: Fuc(a1-2)[GalNAc(a1-3)]Gal(b1-3)GalNAc(a1-3)[Fuc(a1-2)]Gal(b1-4)GlcNAc
# Procedure, shortened: as §1
# [11] = target: Fuc(a1-2)[GalNAc(a1-3)]Gal(b1-3)GalNAc(b1-3)Gal(a1-4)Gal(b1-4)Glc
# Procedure, shortened: as §1
# [12] = target: Fuc(a1-2)[GalNAc(a1-3)]Gal(b1-3)GlcNAc
# Procedure, shortened: as §1
# [13] = target: Fuc(a1-2)[GalNAc(a1-3)]Gal(b1-3)GlcNAc(b1-2)Man(a1-3)[Fuc(a1-2)[GalNAc(a1-3)]Gal(b1-3)GlcNAc(b1-2)Man(a1-6)]Man(b1-4)GlcNAc(b1-4)GlcNAc
# Procedure, shortened: as §1
# [14] = target: Fuc(a1-2)[GalNAc(a1-3)]Gal(b1-3)GlcNAc(b1-2)Man(a1-3)[Fuc(a1-2)[GalNAc(a1-3)]Gal(b1-3)GlcNAc(b1-2)Man(a1-6)]Man(b1-4)GlcNAc(b1-4)[Fuc(a1-6)]GlcNAc
# Procedure, shortened: as §1
# [15] = target: Fuc(a1-2)[GalNAc(a1-3)]Gal(b1-3)GlcNAc(b1-3)GalNAc
# Procedure, shortened: as §1
# [16] = target: Fuc(a1-2)[GalNAc(a1-3)]Gal(b1-3)GlcNAc(b1-6)GalNAc
# Procedure, shortened: as §1
# [17] = target: Fuc(a1-2)[GalNAc(a1-3)]Gal(b1-4)Glc
# Procedure, shortened: as §1
# [18] = target: Fuc(a1-2)[GalNAc(a1-3)]Gal(b1-4)GlcNAc
# Procedure, shortened: as §1
# [19] = target: Fuc(a1-2)[GalNAc(a1-3)]Gal(b1-4)GlcNAc(b1-2)Man
# Procedure, shortened: as §1
# [20] = target: Fuc(a1-2)[GalNAc(a1-3)]Gal(b1-4)GlcNAc(b1-2)Man(a1-3)[Fuc(a1-2)[GalNAc(a1-3)]Gal(b1-4)GlcNAc(b1-2)Man(a1-6)]Man(b1-4)GlcNAc(b1-4)GlcNAc
# Procedure, shortened: as §1
# [21] = target: Fuc(a1-2)[GalNAc(a1-3)]Gal(b1-4)GlcNAc(b1-2)Man(a1-3)[Fuc(a1-2)[GalNAc(a1-3)]Gal(b1-4)GlcNAc(b1-2)Man(a1-6)]Man(b1-4)GlcNAc(b1-4)[Fuc(a1-6)]GlcNAc
# Procedure, shortened: as §1
# [22] = target: Fuc(a1-2)[GalNAc(a1-3)]Gal(b1-4)GlcNAc(b1-3)Gal(b1-4)GlcNAc
# Procedure, shortened: as §1
# [23] = target: Fuc(a1-2)[GalNAc(a1-3)]Gal(b1-4)GlcNAc(b1-3)Gal(b1-4)GlcNAc(b1-3)Gal(b1-4)GlcNAc
# Procedure, shortened: as §1
# [24] = target: Fuc(a1-2)[GalNAc(a1-3)]Gal(b1-4)GlcNAc(b1-3)GalNAc
# Procedure, shortened: as §1
# [25] = target: Fuc(a1-2)[GalNAc(a1-3)]Gal(b1-4)GlcNAc(b1-3)[Fuc(a1-2)[GalNAc(a1-3)]Gal(b1-4)GlcNAc(b1-6)]GalNAc
# Procedure, shortened: as §1
# [26] = target: Fuc(a1-2)[GalNAc(a1-3)]Gal(b1-4)GlcNAc(b1-6)GalNAc
# Procedure, shortened: as §1
# [27] = target: Fuc(a1-2)[GalNAc(a1-3)]Gal(b1-4)[Fuc(a1-3)]GlcNAc
# Procedure, shortened: as §1
# [28] = target: Fuc(a1-2)[GalNAc(a1-3)]Gal(b1-4)[Fuc(a1-3)]GlcNAc(b1-3)GalNAc
# Procedure, shortened: as §1
# [29] = target: Fuc(a1-2)[GalNAc(a1-4)]Gal(b1-4)GlcNAc
# Procedure, shortened: as §1
# [30] = target: Fuc(a1-2)[GalNAc(b1-3)]Gal
# Procedure, shortened: as §1
# [31] = target: Fuc(a1-3)GlcNAc
# Procedure, shortened: as §1
# [32] = target: Fuc(a1-3)[Gal(b1-4)]Glc6S
# Procedure, shortened: as §1
# [33] = target: Fuc(a1-3)[Gal(b1-4)]GlcNAc
# Procedure, shortened: as §1
# [34] = target: Fuc(a1-3)[Gal(b1-4)]GlcNAc(b1-2)Man
# Procedure, shortened: as §1
# [35] = target: Fuc(a1-3)[Gal(b1-4)]GlcNAc(b1-2)Man(a1-3)[Fuc(a1-3)[Gal(b1-4)]GlcNAc(b1-2)Man(a1-6)]Man(b1-4)GlcNAc(b1-4)GlcNAc
# Procedure, shortened: as §1
# [36] = target: Fuc(a1-3)[Gal(b1-4)]GlcNAc(b1-2)Man(a1-3)[Fuc(a1-3)[Gal(b1-4)]GlcNAc(b1-2)Man(a1-6)]Man(b1-4)GlcNAc(b1-4)[Fuc(a1-6)]GlcNAc
# Procedure, shortened: as §1
# [37] = target: Fuc(a1-3)[Gal(b1-4)]GlcNAc(b1-3)Gal(b1-3)[Fuc(a1-4)]GlcNAc
# Procedure, shortened: as §1
# [38] = target: Fuc(a1-3)[Gal(b1-4)]GlcNAc(b1-3)Gal(b1-4)[Fuc(a1-3)]GlcNAc
# Procedure, shortened: as §1
# [39] = target: Fuc(a1-3)[Gal(b1-4)]GlcNAc(b1-3)Gal(b1-4)[Fuc(a1-3)]GlcNAc(b1-3)Gal(b1-4)[Fuc(a1-3)]GlcNAc
# Procedure, shortened: as §1
# [40] = target: Fuc(a1-3)[Gal(b1-4)]GlcNAc(b1-3)GalNAc
# Procedure, shortened: as §1
# [41] = target: Fuc(a1-3)[Gal(b1-4)]GlcNAc(b1-6)GalNAc
# Procedure, shortened: as §1
# [42] = target: Fuc(a1-3)[Gal(b1-4)]GlcNAc(b1-6)[Gal(b1-3)GlcNAc(b1-3)]Gal(b1-4)Glc
# Procedure, shortened: as §1
# [43] = target: Fuc(a1-3)[Gal(b1-4)]GlcNAc6S
# Procedure, shortened: as §1
# [44] = target: Fuc(a1-3)[Gal3S(b1-4)]Glc
# Procedure, shortened: as §1
# [45] = target: Fuc(a1-3)[Gal3S(b1-4)]GlcNAc
# Procedure, shortened: as §1
# [46] = target: Fuc(a1-3)[Gal3S(b1-4)]GlcNAc6S
# Procedure, shortened: as §1
# [47] = target: Fuc(a1-3)[GalNAc(b1-4)]GlcNAc
# Procedure, shortened: as §1
# [48] = target: Fuc(a1-3)[GalNAc(b1-4)]GlcNAc6S
# Procedure, shortened: as §1
# [49] = target: Fuc(a1-4)GlcNAc
# Procedure, shortened: as §1
# [50] = target: Fuc(b1-3)GlcNAc
# Procedure, shortened: as §1
# [51] = target: Gal(a1-2)Gal
# Procedure, shortened: as §1
# [52] = target: Gal(a1-3)Gal
# Procedure, shortened: as §1
# [53] = target: Gal(a1-3)Gal(b1-3)GlcNAc
# Procedure, shortened: as §1
# [54] = target: Gal(a1-3)Gal(b1-3)GlcNAc(b1-2)Man
# Procedure, shortened: as §1
# [55] = target: Gal(a1-3)Gal(b1-3)GlcNAc(b1-2)Man(a1-3)[Gal(a1-3)Gal(b1-3)GlcNAc(b1-2)Man(a1-6)]Man(b1-4)GlcNAc(b1-4)GlcNAc
# Procedure, shortened: as §1
# [56] = target: Gal(a1-3)Gal(b1-3)GlcNAc(b1-3)GalNAc
# Procedure, shortened: as §1
# [57] = target: Gal(a1-3)Gal(b1-3)GlcNAc(b1-6)GalNAc
# Procedure, shortened: as §1
# [58] = target: Gal(a1-3)Gal(b1-3)[Fuc(a1-4)]GlcNAc(b1-2)Man(a1-3)[Gal(a1-3)Gal(b1-3)[Fuc(a1-4)]GlcNAc(b1-2)Man(a1-6)]Man(b1-4)GlcNAc(b1-4)GlcNAc
# Procedure, shortened: as §1
# [59] = target: Gal(a1-3)Gal(b1-4)Glc
# Procedure, shortened: as §1
# [60] = target: Gal(a1-3)Gal(b1-4)GlcNAc
# Procedure, shortened: as §1
binder,measurement,setting,value
B1,glycan array binding signal (z-score),[1],-0.275
same,glycan array binding signal (z-score),[2],-0.209
same,glycan array binding signal (z-score),[3],1.94
same,glycan array binding signal (z-score),[4],-0.245
same,glycan array binding signal (z-score),[5],-0.253
same,glycan array binding signal (z-score),[6],-0.096
same,glycan array binding signal (z-score),[7],0.141
same,glycan array binding signal (z-score),[8],-0.246
same,glycan array binding signal (z-score),[9],-0.241
same,glycan array binding signal (z-score),[10],-0.252
same,glycan array binding signal (z-score),[11],-0.201
same,glycan array binding signal (z-score),[12],-0.189
same,glycan array binding signal (z-score),[13],-0.143
same,glycan array binding signal (z-score),[14],-0.208
same,glycan array binding signal (z-score),[15],0.033
same,glycan array binding signal (z-score),[16],-0.07
same,glycan array binding signal (z-score),[17],-0.199
same,glycan array binding signal (z-score),[18],-0.24
same,glycan array binding signal (z-score),[19],-0.204
same,glycan array binding signal (z-score),[20],-0.043
same,glycan array binding signal (z-score),[21],-0.187
same,glycan array binding signal (z-score),[22],-0.249
same,glycan array binding signal (z-score),[23],0.636
same,glycan array binding signal (z-score),[24],-0.24
same,glycan array binding signal (z-score),[25],-0.245
same,glycan array binding signal (z-score),[26],-0.149
same,glycan array binding signal (z-score),[27],-0.083
same,glycan array binding signal (z-score),[28],0.878
same,glycan array binding signal (z-score),[29],-0.198
same,glycan array binding signal (z-score),[30],0.039
same,glycan array binding signal (z-score),[31],-0.147
same,glycan array binding signal (z-score),[32],-0.039
same,glycan array binding signal (z-score),[33],-0.206
same,glycan array binding signal (z-score),[34],-0.048
same,glycan array binding signal (z-score),[35],-0.116
same,glycan array binding signal (z-score),[36],-0.042
same,glycan array binding signal (z-score),[37],-0.141
same,glycan array binding signal (z-score),[38],-0.175
same,glycan array binding signal (z-score),[39],-0.226
same,glycan array binding signal (z-score),[40],-0.044
same,glycan array binding signal (z-score),[41],0.298
same,glycan array binding signal (z-score),[42],-0.138
same,glycan array binding signal (z-score),[43],0.298
same,glycan array binding signal (z-score),[44],-0.1
same,glycan array binding signal (z-score),[45],-0.153
same,glycan array binding signal (z-score),[46],0.03
same,glycan array binding signal (z-score),[47],-0.093
same,glycan array binding signal (z-score),[48],-0.241
same,glycan array binding signal (z-score),[49],8.15
same,glycan array binding signal (z-score),[50],-0.034
same,glycan array binding signal (z-score),[51],-0.184
same,glycan array binding signal (z-score),[52],-0.098
same,glycan array binding signal (z-score),[53],0.353
same,glycan array binding signal (z-score),[54],-0.209
same,glycan array binding signal (z-score),[55],-0.009
same,glycan array binding signal (z-score),[56],-0.169
same,glycan array binding signal (z-score),[57],-0.251
same,glycan array binding signal (z-score),[58],0.01
same,glycan array binding signal (z-score),[59],-0.237
same,glycan array binding signal (z-score),[60],-0.222
